# Reference: PubChem BioAssay AID1476 (National Center for Advancing Translational Sciences (NCATS), 2009)
# The whole screen tested about 200,000 compounds, of which about 4,500 (2.2%) were called active. Inconclusive results, whose numbers are uncertain, are shown with a selection of clear calls. The call rests on the fitted dose curve; in most records, active means well fitted inhibition curve with a large enough effect; inconclusive means small, poorly fitted or top-dose-only effect, or effect the other way; inactive means flat fitted curve, though single readings scatter. Potencies of inconclusive entries are doubtful fits and often do not repeat.
# Biological target: Cruzipain (Trypanosoma cruzi) (UniProt P25779)
# Sequence of UniProt P25779 (P25779 whole entry, looked up): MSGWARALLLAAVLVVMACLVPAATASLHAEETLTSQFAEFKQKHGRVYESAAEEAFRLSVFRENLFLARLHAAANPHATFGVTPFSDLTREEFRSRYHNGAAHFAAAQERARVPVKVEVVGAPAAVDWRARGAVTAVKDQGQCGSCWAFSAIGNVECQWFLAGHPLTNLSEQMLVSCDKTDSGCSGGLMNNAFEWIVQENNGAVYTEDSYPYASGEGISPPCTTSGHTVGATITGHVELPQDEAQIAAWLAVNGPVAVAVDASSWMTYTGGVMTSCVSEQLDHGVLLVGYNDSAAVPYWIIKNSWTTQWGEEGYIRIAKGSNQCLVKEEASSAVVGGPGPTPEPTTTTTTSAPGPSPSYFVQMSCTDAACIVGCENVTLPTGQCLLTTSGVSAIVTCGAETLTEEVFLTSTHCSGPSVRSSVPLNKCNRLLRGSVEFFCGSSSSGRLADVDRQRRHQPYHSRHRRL
# Assay: qHTS Assay for Promiscuous and Specific Inhibitors of Cruzain (without detergent); further: nearly all actives have a fitted effect of over 40% in size;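 on max response, negative = inhibition: plate controls were enzyme without inhibitor for no effect and buffer without enzyme for full effect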
# Settings: purified cruzain, Z-FR-AMC fluorescence, no detergent
# Procedure, shortened: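 Purified cruzain at 1.5 nM, pre-incubated 15 min with compound at room temperature in 100 mM sodium acetate pH 5.5, 5 mM DTT, 0.00005% Triton X-100. Reaction started with 2 uM Z-FR-AMC; AMC fluorescence increase over 60 s gives rate.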
# Potency means the concentration at half of the fitted maximal effect; tags describe the fitted curve by direction and shape.
SMILES,Potency,"max response, negative = inhibition"
Cc1ccc2c(c1)-c1c(ssc1=S)C(C)(C)N2C(=O)CSc1nncn1C,"inconclusive: 39.8 µM [activator, single point]",
CCOC(=O)C1CCN(CC(=O)Nc2cc(C)nn2-c2nc3ccccc3s2)CC1,"inconclusive: 31.6 µM [activator, single point]",
O=C(Cn1c(=O)n(Cc2nc(-c3ccccc3)no2)c(=O)c2cc3c(cc21)OCO3)Nc1ccc(Cl)cc1,active: 10 µM,
Cc1cccc(NC(=O)c2cc(S(=O)(=O)c3ccccc3)ccc2Cl)c1,,inactive: -2.13%
CCOC(=O)c1ccc(N2C(=O)c3n[nH]c(-c4cccs4)c3C2c2cccc(F)c2)cc1 (configuration not stated),"inconclusive: 1 µM [inhibitor, single point]",
COC(=O)C1=CN(C(C)C)C=C(C(=O)OC)C1c1cc(Br)c(OC)c(OC)c1,"inconclusive: 20 µM [activator, partial curve]",
COCCNC(=O)c1c(N)n(CCCn2ccnc2)c2nc3ccccc3nc12,"inconclusive: 25.1 µM [activator, partial curve]",
CN(C)c1ccc(C(CNC(=O)c2ccc(F)cc2)c2c[nH]c3ccccc23)cc1 (configuration not stated),"inconclusive: 31.6 µM [inhibitor, single point]",
COc1ccccc1N(CC(=O)NCCSCc1ccccc1Cl)S(C)(=O)=O,"inconclusive: 31.6 µM [activator, single point]",
CCOc1cc(/C=C2\N=C(SC)SC2=O)cc([N+](=O)[O-])c1OC(C)=O,"inconclusive: 39.8 µM [activator, single point]",
COc1cc(/C=C/C(=O)Nc2ccc(C(C)=O)cc2)cc(OC)c1OC,"inconclusive: 39.8 µM [activator, single point]",
Cc1ccc(C2C(C(=O)c3cc4ccccc4o3)=C(O)C(=O)N2CCN2CCOCC2)o1 (configuration not stated),"inconclusive: 39.8 µM [activator, single point]",
CCOc1ccc(NC(=S)N2CCc3cc(OC)c(OC)cc3C2COc2ccc3c(C)cc(=O)oc3c2)cc1 (configuration not stated),"inconclusive: 6.31 µM [activator, single point]",
O=C(Cn1cc(SCc2cccc(F)c2)c2ccccc21)N1CCOCC1,"inconclusive: 31.6 µM [activator, single point]",
Cc1cc(C)c2sc(N(Cc3cccnc3)C(=O)CCS(=O)(=O)c3ccccc3)nc2c1,"inconclusive: 3.98 µM [activator, single point]",
CC(C)(C)C1CCc2oc3ccc(NS(=O)(=O)c4cc(Cl)ccc4Cl)cc3c2C1 (configuration not stated),active: 3.98 µM,
Cc1ccc(C)c(S(=O)(=O)c2cn(Cc3ccccc3)c3cc(F)c(F)cc3c2=O)c1,active: 25.1 µM,
